Each structure is given as a SMILES string. Out of some 52,000 compounds screened, about 1,700 (3.3%) were called active. Cut-off read from the data, not from the text of the source: active = survival mostly below about 52% (no sharp cut-off); inactive = mostly above about 56%. This is one part of the list.

The test deals with Wild type. Description: growth inhibition of S. aureus wild type versus tarO mutant, primary screen, teichoic acid synthesis inhibitors, RN4220, OD600 (AID 463173). As to conditions: S. aureus RN4220 wild type/DeltatarO growth, OD600, 18 h, hits give low values, screened at 18.75 µg/mL (by protocol).
For the compound `N=C(N=C(N)N)N1CCCc2ccccc21`, the survival was inactive: 89%.
Under `Cc1nnc(N2CCC(C(=O)N3CCCCC3)CC2)c2nn(-c3ccc(Cl)cc3)c(C)c12` stands inactive: 74%.
For `Cc1ccc(OCCCCn2nnc3sc4c(c3c2=O)CCCC4)cc1`, the survival was inactive: 91%.
Under `NC(=O)CSc1nnc(-c2ccco2)n1Cc1ccco1` stands inactive: 91%; under `O=C(CNCC1CCCO1)NCc1ccco1` (stereo unspecified), inactive: 112%; under `CC(=O)c1cc(-c2ccccc2)n(CCC(=O)NCc2ccc(C)cc2)c1C`, inactive: 88%.
Next, `CCc1ccc(NC(=O)Cn2c(=O)n(CCCCC(=O)NCc3ccc4c(c3)OCO4)c(=O)c3ccccc32)cc1`: inactive: 95%; `CCOc1ccccc1Nc1sc(C(=O)c2ccccc2)c(N)c1C(=O)Nc1ccccc1`: inactive: 99%; `CC(C(=O)O)c1nn(C)c(=O)c2ccccc12` (stereo unspecified): inactive: 124%.
Consider `CCOC(=O)c1c(C)n(C2CCCCC2)c2ccc(OCC(N)=O)cc12`, for which the survival was inactive: 120%.
Next, `COc1ccc(-c2noc(N(c3nc(-c4ccc(OC)c(OC)c4)no3)c3ccccc3OC)n2)cc1OC`: inactive: 130%; `CCc1ccc2[nH]c(=O)c(CN(CCCN3CCOCC3)C(=S)NC)cc2c1`: inactive: 115%; `CCOc1ccccc1CNc1ccc2cc(S(=O)(=O)N3CCC(C)CC3)ccc2n1`: inactive: 67%.
As to `COc1ccc(-c2nn3c(=O)cc(CN4CCN(C(=O)c5ccc(OC)c(OC)c5)CC4)nc3s2)cc1`, the survival is inactive: 68%.
Under `CCOc1ccccc1NC(=O)c1ccc2c(Cl)c3c(nc2c1)CCC3` stands inactive: 78%.
Under `CC(C)(C)c1ccc(C(=O)Nc2ccc3c(c2)CCCN3C(=O)c2cccs2)cc1` stands inactive: 66%; under `Cc1ccc(C)c(N2CCN(C(=O)NC3CCCCC3)CC2)c1`, inactive: 103%; under `COC(=O)c1ccc(NC(=O)CSc2nc(C)cc(C)c2C(=O)Nc2ccccc2)cc1`, inactive: 78%.
Under `Cc1nc(-c2ccc(S(=O)(=O)Nc3ccc(C#N)cc3)cc2)co1` stands inactive: 126%; under `COc1ccc(C(=O)Nc2nccs2)c(OC)c1`, inactive: 118%.
Turning to `COc1cc(NS(=O)(=O)c2cnc(N)nc2)cc(OC)c1`, the survival was inactive: 64%.
For the compound `CCOc1ccc(/C=C/C(=O)Nc2sc3c(c2C(=O)OC)C(C(=O)OC)CC3)cc1` (stereo unspecified), the survival is inactive: 75%.
Next, `CCOC(=O)c1cc(C)n(CC2CCC(C(=O)Nc3ccc(C(C)=O)cc3)CC2)c1C` (stereo unspecified): inactive: 75%; `COc1cc(C(=O)OCc2cc(=O)n3nc(C4CCCCC4)sc3n2)cc(OC)c1OC`: inactive: 131%.
Under `CCCNS(=O)(=O)c1ccc2nc(NC(=O)c3ccc(F)cc3)sc2c1` stands inactive: 78%; under `Cc1ccc2nc(N3CCN(c4ccccc4)CC3)c3nnnn3c2c1`, inactive: 78%.
Regarding `O=C(NCCC1=CCCCC1)c1ccc2c(c1)N(Cc1ccccc1F)C(=O)c1ccccc1S2=O` (stereo unspecified), the survival is inactive: 156%.
On to `CCn1nnc2cc(C(=O)Nc3ccc(Cl)cc3C)ccc21`, for which the survival is inactive: 123%.
Next, `CCc1cccc(-n2c(=O)c3cccnc3n2CC(=O)NCc2ccccc2)c1`: inactive: 74%.
`COc1ccc(N2CCN(C(=O)c3cccc(-n4c(C)nc5cccnc54)c3)CC2)cc1`: the survival was inactive: 74%.
Under `CCc1cccc(NC(=O)c2cn3c4c(ccc(Cl)c4c2=O)OC(C)C3)c1` (stereo unspecified) stands inactive: 73%; under `CC1CCCCN1C(=O)Cn1c(=O)n(-c2ccc(Cl)cc2)c(=O)c2c3c(sc21)CCC3` (stereo unspecified), inactive: 121%; under `COc1cccc(NC(=O)Cn2c(=O)cc(C)c3c(C)nn(-c4cccc(F)c4)c32)c1`, inactive: 80%.
Turning to `COc1cccc(NC(=O)C2CCN(S(=O)(=O)c3cccc4nonc34)CC2)c1`, the survival was inactive: 99%.
Next, `OCCNCC(O)CN1c2ccccc2Sc2ccccc21` (stereo unspecified): inactive: 110%; `CCN1CCN(C(c2ccc(OC)cc2)c2c(O)cc(C)n(Cc3ccco3)c2=O)CC1` (stereo unspecified): inactive: 71%.
Next, `COc1ccc(CNC(=O)c2ccc(NC(=O)N3CC4CCCN4c4ccccc43)cc2)cc1` (stereo unspecified): inactive: 92%; `CCN(CC)c1nc2c(-c3cccc(Br)c3)nnn2c2ccccc12`: inactive: 69%; `Cc1ccc(-n2ncc(C(=O)NCCc3ccccc3)c2C2CCN(C(=O)OC(C)(C)C)CC2)c(C)c1`: inactive: 81%.
Consider `O=c1[nH]c(=O)n(-c2ccccc2)c(O)c1C=Nc1ccc(S(=O)(=O)N2CCCCC2)cc1`, for which the survival was inactive: 101%.
Next, `O=C(CSc1ccccc1)Nc1ccc(NC(=O)c2ccco2)cc1`: inactive: 105%.
`COCCCn1c(=N)c(C(=O)NCC2CCCO2)cc2c(=O)n3cc(C)ccc3nc21` (stereo unspecified): the survival is inactive: 71%.
Under `Cc1ccc(Nc2c(-c3ccc(N(C)C)cc3)nc3nc[nH]n23)cc1` stands inactive: 88%.
Under `Cc1ccc2c(=O)cc(C(=O)Nc3ccc(S(=O)(=O)N4CCC(C)CC4)cc3)oc2c1C` stands inactive: 88%; under `CC(=O)c1ccc(S(=O)(=O)Nc2ccc(-c3ccc(N4CCCCCC4)nn3)cc2)cc1`, inactive: 83%.
As to `COc1cccc(-c2nn3c(=O)cc(CN4CCN(S(=O)(=O)c5ccc(C)cc5)CC4)nc3s2)c1`, the survival was inactive: 99%.
Next, `Cc1ccc(CSc2nnc(-n3c(=O)c(C#N)cc4c(=O)n5cccc(C)c5nc43)s2)cc1`: inactive: 96%; `O=C(Cc1ccccc1)Nc1sc2c(c1C(=O)Nc1ccccc1)CCCCC2`: inactive: 78%; `COc1cc(C2CC(=O)Nc3c2c(C)nn3-c2nc(C)cc(C)n2)cc(OC)c1O` (stereo unspecified): inactive: 82%.
Next, `COc1ccc(-c2nc3ccccc3n3c(-c4cccc(C)c4)c4c(=O)n(C)c(=O)n(C)c4c23)cc1`: inactive: 74%; `Cc1ccc(C(=O)C2CCN(C(=O)Cc3ccccc3)CC2)cc1`: inactive: 105%.
Regarding `CSc1nc(=O)c2c(n1C)NC(=O)CC2c1ccccc1OC(C)C` (stereo unspecified), the survival was inactive: 84%.
Next, `O=C(CC1(O)C(=O)N(CCc2ccccc2)c2ccc(Br)cc21)c1ccc(F)cc1` (stereo unspecified): active: 4%; `CCOc1ccc(CCNC(=O)CCCn2c(=O)c3cccn3c3cccnc32)cc1OCC`: inactive: 90%.
Under `CCc1ccc2c(c1)c(=O)c(S(=O)(=O)c1ccc(Cl)cc1)cn2CC` stands inactive: 89%.
As for `Cc1nn(Cc2ccc(Cl)c(Cl)c2)c(C)c1NC(=O)c1noc2c1CCc1ccccc1-2`, the survival was inactive: 72%.
In the case of `COc1cccc(-c2cn3c(n2)sc2cc(C(=O)NCCCc4ccccc4)ccc23)c1`, the survival is inactive: 49%.
Under `CSc1ccc(CNC(=O)C2CCCN(S(=O)(=O)N(C)c3ccc(F)cc3)C2)cc1` (stereo unspecified) stands inactive: 88%; under `COC(=O)CC1Oc2ccccc2-n2cc(-c3ccc(C)cc3)nc21` (stereo unspecified), inactive: 78%.
Under `CCSc1nsc(NC(=O)Nc2cccc(F)c2)n1` stands active: 0%; under `COc1ccc(/C=N/NC(=O)c2ccc3c(c2)NC(=O)C(C)(C)O3)cc1OC`, inactive: 106%; under `COc1ccccc1CC(=O)Nc1cccc(C)n1`, inactive: 104%.
Turning to `COc1cccc(CNCCSc2nnnn2C)c1OCc1ccccc1`, the survival was inactive: 85%.
Under `CC(C)CCNC(=O)C1CC(=O)N(c2ccccc2)C1` (stereo unspecified) stands inactive: 103%; under `Cc1ccc2nc(NS(C)(=O)=O)sc2c1`, inactive: 101%; under `Nc1c(C(=O)NCc2ccc(Cl)cc2Cl)nnn1Cc1ccc(Br)cc1`, inactive: 64%.
Next, `Fc1ccc(CN(Cc2ccco2)Cc2nnnn2CCc2ccccc2)cc1`: inactive: 125%.
Next, `CCc1ccc(CNC(=O)c2cc3cc(S(=O)(=O)N4CCCCC4)ccc3n2C)cc1`: inactive: 47%; `CCCn1ccc2c(OCC(=O)Nc3cc(C)ccc3C)cccc2c1=O`: inactive: 124%; `Cc1ccc(S(=O)(=O)NCC2CCC(C(=O)NCc3ccc(F)cc3)CC2)cc1` (stereo unspecified): inactive: 75%.
Turning to `COc1ccc(OCC(=O)Nc2cc(-c3ccccc3F)nn2-c2ccccc2)cc1`, the survival is inactive: 73%.
Under `COc1ccc(C)cc1NC(=O)C1CCN(S(=O)(=O)c2c(C)noc2/C=C/c2ccco2)CC1` stands inactive: 73%; under `COc1cccc(-n2c(-c3ccc(Cl)cc3)cc3c2CC(C)(C)CC3=O)c1`, inactive: 16%.
Next, `O=C(Nc1ccc(F)cc1F)C(Cc1ccccc1)N1Cc2ccccc2C1=O` (stereo unspecified): active: -6%; `COc1ccc(C2(C(=O)N3CCCC3)CCCC2)cc1OC`: inactive: 102%; `COc1cc2c(=O)n(Cc3ccccc3Cl)c(=O)n(CC(=O)Nc3ccccc3)c2cc1OC`: inactive: 70%.
With `O=C(CCC(=O)N1CC2CCCN2c2ccccc21)NCc1cccc(Cl)c1` (stereo unspecified), the survival was active: 10%.
Under `Cc1ccc(-c2nnc(SCC(=O)NC3CCCC3)nc2-c2ccc(C)cc2)cc1` stands inactive: 85%; under `Cc1ccc(C(=O)Nc2nc3ccc(S(=O)(=O)N4CCCC4)cc3s2)cc1`, inactive: 89%; under `CC(C)CNC(=O)C1C2C=CC(C2)C1C(=O)O` (stereo unspecified), inactive: 108%.
Next, `CCOc1ccc(NC(=O)CCC(=O)N2CC(C)Oc3ccc(C)cc32)cc1` (stereo unspecified): inactive: 83%; `COc1ccc(CN2C(=O)c3oc4ccc(F)cc4c(=O)c3C2c2ccc(O)cc2)cc1` (stereo unspecified): inactive: 100%; `CC(C)CNS(=O)(=O)c1ccccc1`: inactive: 120%.
Under `CCCCn1cc2c(c1-c1ccccc1Br)c(=O)n(C)c(=O)n2C` stands inactive: 89%.
Turning to `Cc1nc(N2CCOCC2)c2c(C(=O)NCCc3ccccc3)c(C)oc2n1`, the survival is active: -3%.
Under `CC(C)Nc1nc(NC(C)C)nc(N(C)C)n1` stands inactive: 115%.
Under `Cc1ccc(C(=O)n2nc(-c3ccco3)nc2NCc2cccs2)cc1` stands inactive: 88%; under `CCOC(=O)C1CCN(S(=O)(=O)c2cc3c4c(c2)CC(=O)N4CCC3)CC1`, inactive: 88%.
Turning to `CCC1=NN(C(=O)Cc2ccccc2)C(O)(c2ccccc2)C1` (stereo unspecified), the survival was inactive: 107%.
Next, `C#CCOc1ccc(C2C3=C(CCCC3=O)N(CCC(=O)O)C3=C2C(=O)CCC3)cc1`: inactive: 118%; `O=C(CSc1nc2c(c(=O)[nH]1)CN(Cc1ccc(F)cc1)CC2)Nc1ccccc1Cl`: inactive: 79%.
